This note sets out measurements from article PMC10726135.

The list shows a part of the results. At the low end of the ranking the order means little. The protein was read in a cell extract, so binding may be indirect.

The target of this assay is T1, HNF4alpha2 (COS-7 nuclear extract) (UniProt P41235).
T1 sequence: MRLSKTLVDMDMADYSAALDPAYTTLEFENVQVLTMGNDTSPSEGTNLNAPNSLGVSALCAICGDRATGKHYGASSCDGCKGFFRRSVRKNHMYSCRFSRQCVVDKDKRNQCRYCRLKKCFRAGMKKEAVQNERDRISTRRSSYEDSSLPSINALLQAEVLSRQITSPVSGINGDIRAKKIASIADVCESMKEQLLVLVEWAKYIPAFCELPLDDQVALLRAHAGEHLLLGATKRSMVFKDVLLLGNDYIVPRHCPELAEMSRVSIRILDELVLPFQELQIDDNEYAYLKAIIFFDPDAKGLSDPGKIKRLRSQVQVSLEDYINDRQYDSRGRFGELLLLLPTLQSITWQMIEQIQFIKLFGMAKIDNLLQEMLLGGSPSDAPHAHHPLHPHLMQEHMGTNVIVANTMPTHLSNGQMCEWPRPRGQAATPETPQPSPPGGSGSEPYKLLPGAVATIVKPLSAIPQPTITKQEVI
The assay is described as follows: protein-binding microarray. The conditions noted are these: COS-7 nuclear extract on double-stranded Agilent 4x180k PBM; binding buffer, salt, pH and temperature not given; high values mean tight binding; double strand, one strand shown; sequences stand for … in …GCCTAGGGAGATTAGAGTATCGGTCGA
Take GATAAAGGGTTACAAACTTCAAGGTCCATT: the binding signal (log2 normalized intensity) came to 1.85.
The same measure for CGACCTTTGCTCCCGACTCTGAGGCTCCAT: 4.94; for TTGACTCAGTTGCAGAAAAACAGGTTCTGC: -0.587; for GGCCAGGCCAAATCAGAACTGAGTTACTTG: -1.17.
Consider GGTCAAGCCCAACCAAAGTAGAGGAATGCT, for which the binding signal (log2 normalized intensity) was -1.04.
On to ATCCAGCAGACTTAGACCCTGACCTGGCAT, for which the binding signal (log2 normalized intensity) was 1.5.
On to CTGATAGCGAGTTATCTGCATTCCAGCTCA, for which the binding signal (log2 normalized intensity) is -1.11.
The same measure for GGAGGAGAGAAGGGCTGAAGGTTAATTCGC: -0.453.
In the case of ATGTTTCAAGTGGCCTGATTTGACAAGGCA, the binding signal (log2 normalized intensity) was 1.56.
Take TAAAACAGTCCATTTCAGTGAACTTTTCAA: the binding signal (log2 normalized intensity) stood at 1.05.
On to GCCGGGTCACGTGGGTCCAGGGTCACGTGC, for which the binding signal (log2 normalized intensity) turned out to be 2.79.
For AATGCTGTTAGCACTCAGTCATTGCCATCT, the binding signal (log2 normalized intensity) was -1.03.
As to GATACAGATAAATAAATCAAGATCACTGCC, the binding signal (log2 normalized intensity) was -1.13.
Turning to CCTATAGCCTCACTTGCTGATAAGGCAGAC, the binding signal (log2 normalized intensity) is -1.1.
In the case of TCTGCGCAGGGAGGAGCGCATCGGGCGCCA it was -1.09.
As for ATAAAGTGGATGGAGCAATTCAACAACTGT, the binding signal (log2 normalized intensity) was -1.17.
In the case of CACCGTTGGAATGTTCCAAGACCTTTGAAG, the binding signal (log2 normalized intensity) turned out to be 1.64.
In the case of CACGCCCACCCTATTGATGCAAGGACAATG it was 1.55; in that of TTTAAGTAAGCCCCCTTCCCCCCTGGGCAA, 4.59.
Regarding CTGATCAAATTCCACACCCCCCACTCTTCA, the binding signal (log2 normalized intensity) came out at 4.34.
In the case of ATTCAGAATAGTTAAGTAACGTGTCAGAGG, the binding signal (log2 normalized intensity) was 0.996.
In the case of CAAAAGTTCAAACTTTATTTGATGATGAAG it was 0.732; in that of GTGCTAGCTCCGACTCAGTGGGGGGGGGGG, -1.17; in that of ATTCCATCATCACGGTGGACATTGTCCAAG, 3.16.
In the case of TTGGCTAAAGTCCAAATTCCTTGGAATACA it was 3.12; in that of TGACCTCTGCTTCCTGCTACAGAGCTCAGA, -0.966.
In the case of CTTGGGAAAGGAGAAGCTGGAGATAAGGAT, the binding signal (log2 normalized intensity) is -1.14.
As for ATGTACATGGACTTTGAACCAAGATATGCT, the binding signal (log2 normalized intensity) was found to be 6.75.
For the sequence AATAAATAACTCTAAGAAATAGGTTAAAGA, the binding signal (log2 normalized intensity) is -0.3.
GCTCTAGATCTCAAAGTCCAAATAGCGCTA: the binding signal (log2 normalized intensity) came to 3.11.
GGGGCGGTTTTTCCATTGTACTCAGTATGT: the binding signal (log2 normalized intensity) was found to be 1.97.
Turning to TGCGGTGAGCATTTGTTTAGGAATTTATCT, the binding signal (log2 normalized intensity) is -0.542.
As to ATCTCCCAGTTCTTTTGACCTTTGCCTCAT, the binding signal (log2 normalized intensity) was 7.95.
For the sequence GTATGAGATAAGGCTAGTAACACTCACATT, the binding signal (log2 normalized intensity) was -1.21.
Take CAAGGCAAGAGAGTCATAAAGGGCAGGAAC: the binding signal (log2 normalized intensity) was -0.937.
GGGGCAATAACCCTAGACACCGGGTGAAGG: the binding signal (log2 normalized intensity) was -1.09.
With ACATCTTTAATTATCATCTCTGTGTATAAG, the binding signal (log2 normalized intensity) was 1.99.
The same measure for TCCAAGGTCACACAGCTAAGAGCCGCAGAG: -1.12; for CTTTTGGCCAGAGTAAGGCGGTTCTTGTCT: 0.958.
With ACACCAGGCCCTCGGCATCATGCCCTTTGG, the binding signal (log2 normalized intensity) is 3.91.
The same measure for ACATTCAGATTCCTGAGCCCAGATCCTCTA: -1.24; for TCCCTTTAGTGGAGTATAGGAACATGAACT: 1.96; for CGCAGCACACTGCAGCGGCATTCTCTGGTC: -1.11.
Take TCCAGGGAACTGTCCACCAAGGAGGTGCTG: the binding signal (log2 normalized intensity) is -1.03.
On to ATGAGGCAAAGGTCAGGAGTTCCATTTAGC, for which the binding signal (log2 normalized intensity) is 3.23.
Regarding CAACCCACTGTTGCCCCTTCCAAAGTCCAC, the binding signal (log2 normalized intensity) worked out at 5.46.
On to AGGAGACCGAGCAGCTCTTTACAAAGCCCA, for which the binding signal (log2 normalized intensity) was -1.13.
For CTCTGCGCCCTTGGAATATCCTGCCTAACA, the binding signal (log2 normalized intensity) is -1.04.
As to AGCAGAACCCAGGGTCACAAGGATCCCATT, the binding signal (log2 normalized intensity) is -1.1.
For the sequence TGTCAACAGCTCAAGTTATCTGAAGCTCTC, the binding signal (log2 normalized intensity) was -1.2.
Regarding GAGTCCACGTACTTAACTACTACACTAAAA, the binding signal (log2 normalized intensity) is -1.19.
In the case of CTGCAGCTGAGTAGAGGAAAGATAACTAAA it was -1.2; in that of GGCTTTATGACCAGTGTGTTGTGCTGACCT, 3.49.
As for CCAAAGTCCATGTTCATAACTGTTAAACTC, the binding signal (log2 normalized intensity) is 1.56.
Consider GGCTGATATCTCTCTGGCTGGTGGGCAAGT, for which the binding signal (log2 normalized intensity) amounted to 1.26.
As to CAAATCCAGGATCAAATACAGAATCAATGC, the binding signal (log2 normalized intensity) is -1.03.
Turning to AAAAGCAAACCAAAAAGTTGGTTGGAGCTA, the binding signal (log2 normalized intensity) was -1.34.
In the case of GCCCTCTTGGTATCAGCTTTGAGACACCTG, the binding signal (log2 normalized intensity) was -0.876.
On to CTATGTGGTTTTGTAAATATAGGATCATGT, for which the binding signal (log2 normalized intensity) is 1.89.
For AGATTCCTCTGAGTCCTCTTCCCAACTTGG, the binding signal (log2 normalized intensity) was -1.05.
Turning to GTCATTAATTAACTTGTGTTCAGAGCTTGC, the binding signal (log2 normalized intensity) turned out to be 1.14.
ATGGGAACATTCCTCAGGGAATTTCTAGGT: the binding signal (log2 normalized intensity) was -1.27.
Consider TGATAAGATTTATCTCTCCAAGGTACTGTG, for which the binding signal (log2 normalized intensity) was -0.19.
Take GCAGCTCAGACTGCTTCTCTGCTGGGGCCC: the binding signal (log2 normalized intensity) is -1.1.
As for TTTTCCTTGGCTGTGCTGCCCTTTGCCCTT, the binding signal (log2 normalized intensity) turned out to be 7.6.
In the case of GGTGACAAGGAAAACTACACTCTTGCTAAA, the binding signal (log2 normalized intensity) was -1.1.
On to GATGCTGGGCAGCTTGTGTGCGTTTCCCAG, for which the binding signal (log2 normalized intensity) came to 1.15.
In the case of TGGATGGATTCAGATCCAGTGGACTCTCTG it was 2.94.
Regarding TTTGCCATTTGGAGAGAGTTTGGCCCCAGT, the binding signal (log2 normalized intensity) amounted to 2.44.
In the case of GGGCGTGTAGGGAGTGGTTCCCACAGCCCA, the binding signal (log2 normalized intensity) is -1.14.
Consider GGGAGGACAAAGTTCTGTCCTTTGTCCCCC, for which the binding signal (log2 normalized intensity) came out at 4.32.
Take CTCCTCCCTCAGGGATCTTTGCACTTGATG: the binding signal (log2 normalized intensity) is 1.32.
